# Laboratory results taken from the supplement of paper PMC8728848.
# This is one part of the list.
# What was measured:
# Test in all cases: glycan array binding signal (z-score within array); higher = stronger binding
# Conditions in all cases: glycan notation: IUPAC condensed, linker removed
# [1] = biological target: GlcNAc(b1-4)GlcNAc(b1-4)GlcNAc(b1-4)GlcNAc(b1-4)GlcNAc(b1-4)GlcNAc
# Summary of the method: (§1)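 The binding signal is a Z-score computed within each array and averaged over linkers. Arrays of the same protein sequence at different concentrations or buffers were also averaged together. Data originate from 3228 arrays in the Consortium for Functional Glycomics database, kept only where the protein sequence was available.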
# [2] = biological target: GlcNAc(b1-4)[GlcNAc(b1-6)]GalNAc
# Summary of the method: as §1
# [3] = biological target: GlcNAc(b1-6)Gal(b1-4)GlcNAc
# Summary of the method: as §1
# [4] = biological target: GlcNAc(b1-6)GalNAc
# Summary of the method: as §1
# [5] = biological target: GlcNAc6S(b1-3)Gal(b1-4)GlcNAc
# Summary of the method: as §1
# [6] = biological target: Kdn(a2-3)Gal(b1-3)GalNAc
# Summary of the method: as §1
# [7] = biological target: Kdn(a2-3)Gal(b1-3)GlcNAc
# Summary of the method: as §1
# [8] = biological target: Kdn(a2-3)Gal(b1-4)Glc
# Summary of the method: as §1
# [9] = biological target: Kdn(a2-3)Gal(b1-4)GlcNAc
# Summary of the method: as §1
# [10] = biological target: Kdn(a2-3)Gal(b1-4)[Fuc(a1-3)]GlcNAc
# Summary of the method: as §1
# [11] = biological target: Kdn(a2-6)Gal(b1-4)GlcNAc
# Summary of the method: as §1
# [12] = biological target: Man(a1-2)Man(a1-2)Man(a1-3)Man
# Summary of the method: as §1
# [13] = biological target: Man(a1-2)Man(a1-2)Man(a1-6)[Man(a1-3)]Man
# Summary of the method: as §1
# [14] = biological target: Man(a1-2)Man(a1-3)Man
# Summary of the method: as §1
# [15] = biological target: Man(a1-2)Man(a1-3)[Man(a1-2)Man(a1-6)]Man
# Summary of the method: as §1
# [16] = biological target: Man(a1-2)Man(a1-3)[Man(a1-2)Man(a1-6)]Man(a1-6)[Man(a1-2)Man(a1-2)Man(a1-3)]Man
# Summary of the method: as §1
# [17] = biological target: Man(a1-2)Man(a1-3)[Man(a1-2)Man(a1-6)]Man(a1-6)[Man(a1-2)Man(a1-2)Man(a1-3)]Man(b1-4)GlcNAc(b1-4)GlcNAc
# Summary of the method: as §1
# [18] = biological target: Man(a1-2)Man(a1-3)[Man(a1-6)]Man(a1-6)[Man(a1-2)Man(a1-3)]Man(b1-4)GlcNAc(b1-4)GlcNAc
# Summary of the method: as §1
# [19] = biological target: Man(a1-2)Man(a1-6)[Man(a1-3)]Man(a1-6)[Man(a1-2)Man(a1-2)Man(a1-3)]Man
# Summary of the method: as §1
# [20] = biological target: Man(a1-2)Man(a1-6)[Man(a1-3)]Man(a1-6)[Man(a1-2)Man(a1-2)Man(a1-3)]Man(b1-4)GlcNAc(b1-4)GlcNAc
# Summary of the method: as §1
# [21] = biological target: Man(a1-3)[Man(a1-6)]Man
# Summary of the method: as §1
# [22] = biological target: Man(a1-3)[Man(a1-6)]Man(a1-6)[Man(a1-2)Man(a1-3)]Man(b1-4)GlcNAc(b1-4)GlcNAc
# Summary of the method: as §1
# [23] = biological target: Man(a1-3)[Man(a1-6)]Man(a1-6)[Man(a1-3)]Man
# Summary of the method: as §1
# [24] = biological target: Man(a1-3)[Man(a1-6)]Man(a1-6)[Man(a1-3)]Man(b1-4)GlcNAc(b1-4)GlcNAc
# Summary of the method: as §1
# [25] = biological target: Man(a1-3)[Man(a1-6)]Man(b1-4)GlcNAc(b1-4)GlcNAc
# Summary of the method: as §1
# [26] = biological target: Man(a1-3)[Man(a1-6)]Man(b1-4)GlcNAc(b1-4)[Fuc(a1-6)]GlcNAc
# Summary of the method: as §1
# [27] = biological target: Man(a1-6)Man
# Summary of the method: as §1
# [28] = biological target: Man(b1-4)GlcNAc
# Summary of the method: as §1
# [29] = biological target: MurNAc(b1-4)GlcNAc
# Summary of the method: as §1
# [30] = biological target: Neu5Ac(a2-3)Gal
# Summary of the method: as §1
# [31] = biological target: Neu5Ac(a2-3)Gal(b1-3)GalNAc
# Summary of the method: as §1
# [32] = biological target: Neu5Ac(a2-3)Gal(b1-3)GalNAc(b1-3)Gal(a1-4)Gal(b1-4)Glc
# Summary of the method: as §1
# [33] = biological target: Neu5Ac(a2-3)Gal(b1-3)GalNAc(b1-4)[Neu5Ac(a2-3)]Gal(b1-4)Glc
# Summary of the method: as §1
# [34] = biological target: Neu5Ac(a2-3)Gal(b1-3)GalNAc(b1-4)[Neu5Ac(a2-8)Neu5Ac(a2-3)]Gal(b1-4)Glc
# Summary of the method: as §1
# [35] = biological target: Neu5Ac(a2-3)Gal(b1-3)GalNAc6S
# Summary of the method: as §1
# [36] = biological target: Neu5Ac(a2-3)Gal(b1-3)GlcNAc
# Summary of the method: as §1
# [37] = biological target: Neu5Ac(a2-3)Gal(b1-3)GlcNAc(b1-2)Man
# Summary of the method: as §1
binder,measurement,setting,value
PX9937B-bvu-524-33-524 (Bacteroides vulgatus) (protein) GTAYWKNPDQFTAFNTGLHALLREKSYNFFLLGEPRADIYGDNPIGGEASQGMERLPFNTINKENVGISNYGDMYKIINQINQMIAKTTETTILTEATQNYYLGEAYGMRAYLYFHLLRSWGDVVLYLDYTEGQNLDLSNITKGVSPATEVMEQIKKDIQASENAFGSDYSFKLGRHFWSAAATQMLKGEAYLWSGRQMNGGNSDYTIAKNAFENVKKADVGLVTSSFKDIFSFENKKNKEMIFTIHNGKDEYEMWGGYYRMRLIPAQDKMVKIYCDENGNSFVGTPDAQLNGLTQLQVRREFYFKGFRNNDTRWTTSLKAVYKKDAQGVVSYFGPITYKFQGTMLEGGSTRSFLDDFPIYRYADCLLQLAMAKVLLGEDPTEEINAVRERAYGSKYFNEHKAEIAYPNDNDPEFYTDNKWMKPDNAGALEAILKERLREFMFEGKRWYDIRLLGWDYVHQYSSAEQSRLLWPIDAGTLTNNSALKQTPGYE,glycan array binding signal (z-score),[1],-0.188
same,glycan array binding signal (z-score),[2],-0.214
same,glycan array binding signal (z-score),[3],-0.358
same,glycan array binding signal (z-score),[4],-0.087
same,glycan array binding signal (z-score),[5],-0.196
same,glycan array binding signal (z-score),[6],-0.215
same,glycan array binding signal (z-score),[7],-0.588
same,glycan array binding signal (z-score),[8],-0.28
same,glycan array binding signal (z-score),[9],-0.189
same,glycan array binding signal (z-score),[10],-0.28
same,glycan array binding signal (z-score),[11],-0.409
same,glycan array binding signal (z-score),[12],-0.369
same,glycan array binding signal (z-score),[13],-0.256
same,glycan array binding signal (z-score),[14],-0.301
same,glycan array binding signal (z-score),[15],-0.403
same,glycan array binding signal (z-score),[16],0.287
same,glycan array binding signal (z-score),[17],-0.308
same,glycan array binding signal (z-score),[18],0.266
same,glycan array binding signal (z-score),[19],0.281
same,glycan array binding signal (z-score),[20],-0.575
same,glycan array binding signal (z-score),[21],-0.449
same,glycan array binding signal (z-score),[22],-0.193
same,glycan array binding signal (z-score),[23],0.628
same,glycan array binding signal (z-score),[24],-0.366
same,glycan array binding signal (z-score),[25],-0.205
same,glycan array binding signal (z-score),[26],-0.29
same,glycan array binding signal (z-score),[27],-0.192
same,glycan array binding signal (z-score),[28],-0.197
same,glycan array binding signal (z-score),[29],-0.246
same,glycan array binding signal (z-score),[30],-0.331
same,glycan array binding signal (z-score),[31],-0.35
same,glycan array binding signal (z-score),[32],-0.124
same,glycan array binding signal (z-score),[33],0.323
same,glycan array binding signal (z-score),[34],-0.191
same,glycan array binding signal (z-score),[35],-0.2
same,glycan array binding signal (z-score),[36],-0.319
same,glycan array binding signal (z-score),[37],0.068
